# The other results are listed elsewhere or left out.
# B1: rEtpA (Escherichia coli) (protein)
# chain: MNRIYKLKFDKRRNELVVVSEITTGVGNAKATGSVEGEKSPRRGVRAMALSLLSGMMIMAHPAMSANLPTGGQIVAGSGSIQTPSGNQMNIHQNSQNMVANWNSFDIGKGNTVQFDQPSSSAVALNRVVGGGESQIMGNLKANGQVFLVNPNGVLFGEGASVSTSGFVASTRDIKNDDFMNRRYTFSGGQKAGAAIVNQGELTTNAGGYIVLAADRVSNSGTIRTPGGKTVLAASERITLQLDNGGLMSVQVTGDVVNALVENRGLVSARDGQVYLTALGRGMLMNTVLNVSGVVEASGMHRQDGNIVLDGGDSGVVHLSGTLQADNASGQGGKVVVQGKNILLDKGSNITATGGQGGGEVYVGGGWQGKDSNIRNADKVVMQGGARIDVSATQQGNGGTAVLWSDSYTNFHGQISAKGGETGGNGGRVETSSHGNLQAFGTVSASAKKGKAGNWLLDSADITIVNGSNVSKTETTQSPPHTQFAPTAAGSAVSNTSINNRLNNGTSVTILTHRTRTGTAQGGNITVNAAINKSNGSDVNLTLQAGGNITVNNSITSTEGKLNVNLSGARTSNGSITISNNANITTNGGDITVGTTNTSNRVNISINNTTLNASNGNIQLTGTGTDSGILFAGNNRLTASNIALTGNSTSGNAINLTGTATLNATNNITLTGSSTSGNAINLKGNNTLTASNITLTGESTSGNAINLTDTTGTTTLNATNNITMQGTRVQIKHSNITAGNFALNATVAGSEISNTTLTATNNINLAAKTNSASSGVYLKDARITSTNGSITANGTATANGKATHLDGNVTLNASNGRIKLTGNGHGSASGILFAGNNRLTASNIALTGNSTSGNAINLTGTATLNATNDITLTGSSTSGNAINLTGTATLNATNNITLTGSSTSGNAINLKGNNTLTASNITLTGESTSGNAINLTDTTGTTTLNATNNITMQGTRVQIKHSNITAGNFALNATVAGSEISNTTLTATNNINLAAKTNSASSGVYLKDARITSTNGSITANGTATANGKATHLDGNVTLNASNGRIKLTGNGHGSASGILFAGNNRLTASNIALTGNSTSGNAINLTGTATLNATNDITLTGSSTSGNAINLTGTATLNATNNITLTGSSTSGNAINLKGNNTLTASNITLTGESTSGNAINLTDTTGTTTLNATNNITMQGTRVQIKHSNITAGNFALNATVAGSEISNTTLTATNNINLAAKTNSASSGVYLKDARITSTNGSITANGTATANGKATHLDGNVTLNASNGRIKLTGNGHGSASGILFAGNNRLTASNIALTGNSTSGNAINLTGTATLNATNDITLTGSSTSGNAINLTGTATLNATNNITLTGSSTSGNAINLKGNNTLTASNITLTGESTSGNAINLTDTTGTTTLNATNNITMQGTRVQIKHSNITAGNFALNATVAGSEISNTTLTATNNINLAAKTNSASSGVYLKDARITSTNGSITTNGTATANGKATHLDGNVTLNASNGRIKLTGNGHGSASGILFAGNNRLTASNIALTGNSTSGNAINLTGTATLNATNDITLTGSSTSGNAINLTGTATLNATNNITLTGSSTSGNAINLKGNNTLTASNITLTGESTSGNAINLTDTTGTTTLNATNNITMQGTRVQIKHSNITAGNFALNATVAGSEISNTTLTATNNINLAAKTNSASSGVYLKDARITSTNGSITANGTAPANDNATYLDGNVTLNASNGSIKLTGNGNGSTSGILFAGNNTLTASNITLTGNSEVYWQKLGPEQKLISEEDLNSAVDHHHHHH
# Experiments:
# Assay in all cases: glycan array binding signal (z-score within array); higher = stronger binding
# Conditions in all cases: glycan notation: IUPAC condensed, linker removed
# [1] = target: Man(a1-2)Man(a1-3)[Man(a1-2)Man(a1-6)]Man(a1-6)[Man(a1-2)Man(a1-2)Man(a1-3)]Man
# In short: (§1)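 Columns mapping to the same glycan were averaged after glycan names were converted to IUPAC-condensed notation. The data come from 3228 arrays in the Consortium for Functional Glycomics database, limited to those with an available protein sequence. Binding is reported as a within-array Z-score averaged across arrays of one protein sequence and across linkers.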
# [2] = target: Man(a1-2)Man(a1-3)[Man(a1-2)Man(a1-6)]Man(a1-6)[Man(a1-2)Man(a1-2)Man(a1-3)]Man(b1-4)GlcNAc(b1-4)GlcNAc
# In short: as §1
# [3] = target: Man(a1-2)Man(a1-3)[Man(a1-6)]Man(a1-6)[Man(a1-2)Man(a1-3)]Man(b1-4)GlcNAc(b1-4)GlcNAc
# In short: as §1
# [4] = target: Man(a1-2)Man(a1-6)[Man(a1-3)]Man(a1-6)[Man(a1-2)Man(a1-2)Man(a1-3)]Man
# In short: as §1
# [5] = target: Man(a1-2)Man(a1-6)[Man(a1-3)]Man(a1-6)[Man(a1-2)Man(a1-2)Man(a1-3)]Man(b1-4)GlcNAc(b1-4)GlcNAc
# In short: as §1
# Man(a1-3)[Man(a1-6)]Man = target: Man(a1-3)[Man(a1-6)]Man
# In short: as §1
# [6] = target: Man(a1-3)[Man(a1-6)]Man(a1-6)[Man(a1-2)Man(a1-3)]Man(b1-4)GlcNAc(b1-4)GlcNAc
# In short: as §1
# [7] = target: Man(a1-3)[Man(a1-6)]Man(a1-6)[Man(a1-3)]Man
# In short: as §1
# [8] = target: Man(a1-3)[Man(a1-6)]Man(a1-6)[Man(a1-3)]Man(b1-4)GlcNAc(b1-4)GlcNAc
# In short: as §1
# [9] = target: Man(a1-3)[Man(a1-6)]Man(b1-4)GlcNAc(b1-4)GlcNAc
# In short: as §1
# [10] = target: Man(a1-3)[Man(a1-6)]Man(b1-4)GlcNAc(b1-4)[Fuc(a1-6)]GlcNAc
# In short: as §1
# Man(a1-6)Man = target: Man(a1-6)Man
# In short: as §1
# Man(b1-4)GlcNAc = target: Man(b1-4)GlcNAc
# In short: as §1
# MurNAc(b1-4)GlcNAc = target: MurNAc(b1-4)GlcNAc
# In short: as §1
# Neu5Ac(a2-3)Gal = target: Neu5Ac(a2-3)Gal
# In short: as §1
# [11] = target: Neu5Ac(a2-3)Gal(b1-3)GalNAc
# In short: as §1
# [12] = target: Neu5Ac(a2-3)Gal(b1-3)GalNAc(b1-3)Gal(a1-4)Gal(b1-4)Glc
# In short: as §1
# [13] = target: Neu5Ac(a2-3)Gal(b1-3)GalNAc(b1-4)[Neu5Ac(a2-3)]Gal(b1-4)Glc
# In short: as §1
# [14] = target: Neu5Ac(a2-3)Gal(b1-3)GalNAc(b1-4)[Neu5Ac(a2-8)Neu5Ac(a2-3)]Gal(b1-4)Glc
# In short: as §1
# [15] = target: Neu5Ac(a2-3)Gal(b1-3)GalNAc6S
# In short: as §1
# [16] = target: Neu5Ac(a2-3)Gal(b1-3)GlcNAc
# In short: as §1
# [17] = target: Neu5Ac(a2-3)Gal(b1-3)GlcNAc(b1-2)Man
# In short: as §1
# [18] = target: Neu5Ac(a2-3)Gal(b1-3)GlcNAc(b1-2)Man(a1-3)[GlcNAc(b1-4)][Neu5Ac(a2-3)Gal(b1-3)GlcNAc(b1-2)Man(a1-6)]Man(b1-4)GlcNAc(b1-4)GlcNAc
# In short: as §1
# [19] = target: Neu5Ac(a2-3)Gal(b1-3)GlcNAc(b1-2)Man(a1-3)[Neu5Ac(a2-3)Gal(b1-3)GlcNAc(b1-2)Man(a1-6)]Man(b1-4)GlcNAc(b1-4)GlcNAc
# In short: as §1
# [20] = target: Neu5Ac(a2-3)Gal(b1-3)GlcNAc(b1-2)[Neu5Ac(a2-3)Gal(b1-3)GlcNAc(b1-4)]Man(a1-6)[Neu5Ac(a2-3)Gal(b1-3)GlcNAc(b1-2)Man(a1-3)]Man(b1-4)GlcNAc(b1-4)GlcNAc
# In short: as §1
# [21] = target: Neu5Ac(a2-3)Gal(b1-3)GlcNAc(b1-3)Gal(b1-3)GlcNAc
# In short: as §1
# [22] = target: Neu5Ac(a2-3)Gal(b1-3)GlcNAc(b1-3)Gal(b1-4)GlcNAc
# In short: as §1
# [23] = target: Neu5Ac(a2-3)Gal(b1-3)GlcNAc(b1-3)GalNAc
# In short: as §1
# [24] = target: Neu5Ac(a2-3)Gal(b1-3)GlcNAc(b1-4)Gal(b1-4)Glc
# In short: as §1
# [25] = target: Neu5Ac(a2-3)Gal(b1-3)GlcNAc(b1-6)GalNAc
# In short: as §1
# [26] = target: Neu5Ac(a2-3)Gal(b1-3)GlcNAc6S
# In short: as §1
# [27] = target: Neu5Ac(a2-3)Gal(b1-3)[Fuc(a1-4)]GlcNAc
# In short: as §1
# [28] = target: Neu5Ac(a2-3)Gal(b1-3)[Fuc(a1-4)]GlcNAc(b1-3)Gal(b1-3)[Fuc(a1-4)]GlcNAc
# In short: as §1
# [29] = target: Neu5Ac(a2-3)Gal(b1-3)[Fuc(a1-4)]GlcNAc(b1-3)Gal(b1-4)[Fuc(a1-3)]GlcNAc
# In short: as §1
# [30] = target: Neu5Ac(a2-3)Gal(b1-3)[GlcNAc(b1-6)]GalNAc
# In short: as §1
# [31] = target: Neu5Ac(a2-3)Gal(b1-3)[Neu5Ac(a2-6)]GalNAc
# In short: as §1
# [32] = target: Neu5Ac(a2-3)Gal(b1-3)[Neu5Ac(a2-6)]GlcNAc(b1-3)[Fuc(a1-3)[Gal(b1-4)]GlcNAc(b1-6)]Gal(b1-4)Glc
# In short: as §1
# [33] = target: Neu5Ac(a2-3)Gal(b1-3)]Neu5Ac(a2-3)Gal(b1-4)]GlcNAc
# In short: as §1
# Neu5Ac(a2-3)Gal(b1-4)Glc = target: Neu5Ac(a2-3)Gal(b1-4)Glc
# In short: as §1
# [34] = target: Neu5Ac(a2-3)Gal(b1-4)GlcNAc
# In short: as §1
# [35] = target: Neu5Ac(a2-3)Gal(b1-4)GlcNAc(b1-2)Man
# In short: as §1
# [36] = target: Neu5Ac(a2-3)Gal(b1-4)GlcNAc(b1-2)Man(a1-3)[GlcNAc(b1-4)][Neu5Ac(a2-3)Gal(b1-4)GlcNAc(b1-2)Man(a1-6)]Man(b1-4)GlcNAc(b1-4)GlcNAc
# In short: as §1
# [37] = target: Neu5Ac(a2-3)Gal(b1-4)GlcNAc(b1-2)Man(a1-3)[Neu5Ac(a2-3)Gal(b1-4)GlcNAc(b1-2)Man(a1-6)]Man(b1-4)GlcNAc(b1-4)GlcNAc
# In short: as §1
# [38] = target: Neu5Ac(a2-3)Gal(b1-4)GlcNAc(b1-2)Man(a1-3)[Neu5Ac(a2-3)Gal(b1-4)GlcNAc(b1-2)Man(a1-6)]Man(b1-4)GlcNAc(b1-4)[Fuc(a1-6)]GlcNAc
# In short: as §1
# [39] = target: Neu5Ac(a2-3)Gal(b1-4)GlcNAc(b1-2)Man(a1-3)[Neu5Ac(a2-6)Gal(b1-4)GlcNAc(b1-2)Man(a1-6)]Man(b1-4)GlcNAc(b1-4)GlcNAc
# In short: as §1
binder,measurement,setting,value
B1,glycan array binding signal (z-score),[1],-0.058
same,glycan array binding signal (z-score),[2],-0.275
same,glycan array binding signal (z-score),[3],-0.356
same,glycan array binding signal (z-score),[4],-0.308
same,glycan array binding signal (z-score),[5],0.009
same,glycan array binding signal (z-score),Man(a1-3)[Man(a1-6)]Man,-0.051
same,glycan array binding signal (z-score),[6],-0.315
same,glycan array binding signal (z-score),[7],-0.256
same,glycan array binding signal (z-score),[8],-0.391
same,glycan array binding signal (z-score),[9],-0.375
same,glycan array binding signal (z-score),[10],-0.03
same,glycan array binding signal (z-score),Man(a1-6)Man,0.387
same,glycan array binding signal (z-score),Man(b1-4)GlcNAc,-0.119
same,glycan array binding signal (z-score),MurNAc(b1-4)GlcNAc,-0.313
same,glycan array binding signal (z-score),Neu5Ac(a2-3)Gal,-0.322
same,glycan array binding signal (z-score),[11],0.894
same,glycan array binding signal (z-score),[12],-0.428
same,glycan array binding signal (z-score),[13],-0.371
same,glycan array binding signal (z-score),[14],0.502
same,glycan array binding signal (z-score),[15],-0.179
same,glycan array binding signal (z-score),[16],-0.265
same,glycan array binding signal (z-score),[17],-0.259
same,glycan array binding signal (z-score),[18],-0.232
same,glycan array binding signal (z-score),[19],0.384
same,glycan array binding signal (z-score),[20],-0.163
same,glycan array binding signal (z-score),[21],-0.489
same,glycan array binding signal (z-score),[22],-0.419
same,glycan array binding signal (z-score),[23],-0.3
same,glycan array binding signal (z-score),[24],-0.047
same,glycan array binding signal (z-score),[25],-0.402
same,glycan array binding signal (z-score),[26],0.674
same,glycan array binding signal (z-score),[27],-0.378
same,glycan array binding signal (z-score),[28],-0.206
same,glycan array binding signal (z-score),[29],-0.21
same,glycan array binding signal (z-score),[30],-0.329
same,glycan array binding signal (z-score),[31],-0.002
same,glycan array binding signal (z-score),[32],-0.356
same,glycan array binding signal (z-score),[33],-0.416
same,glycan array binding signal (z-score),Neu5Ac(a2-3)Gal(b1-4)Glc,1.63
same,glycan array binding signal (z-score),[34],-0.299
same,glycan array binding signal (z-score),[35],0.347
same,glycan array binding signal (z-score),[36],0.086
same,glycan array binding signal (z-score),[37],0.268
same,glycan array binding signal (z-score),[38],-0.371
same,glycan array binding signal (z-score),[39],-0.305
